Out of some 110,000 compounds screened, about 230 (0.21%) showed an effect of 50% or more. This is one part of the list. Where a SMILES comes first, the peptide text is derived from it. The star is where a group is joined. Cbz = O=C(OCc1ccccc1)*; Boc = CC(C)(C)OC(=O)*
Biological target: DPAP1 (Plasmodium falciparum, UniProt Q8IIJ9)
Experiment: primary screen, percent inhibition; read by cleavage of a fluorogenic dipeptide substrate; higher = more effect of the substance
Design: species or system P. falciparum D10 trophozoite lysates; single well
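Also: 30 min substrate incubation versus DMSO and 10 µM JCP410 controls.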

DPAP1, sequence (Q8IIJ9 whole entry, looked up): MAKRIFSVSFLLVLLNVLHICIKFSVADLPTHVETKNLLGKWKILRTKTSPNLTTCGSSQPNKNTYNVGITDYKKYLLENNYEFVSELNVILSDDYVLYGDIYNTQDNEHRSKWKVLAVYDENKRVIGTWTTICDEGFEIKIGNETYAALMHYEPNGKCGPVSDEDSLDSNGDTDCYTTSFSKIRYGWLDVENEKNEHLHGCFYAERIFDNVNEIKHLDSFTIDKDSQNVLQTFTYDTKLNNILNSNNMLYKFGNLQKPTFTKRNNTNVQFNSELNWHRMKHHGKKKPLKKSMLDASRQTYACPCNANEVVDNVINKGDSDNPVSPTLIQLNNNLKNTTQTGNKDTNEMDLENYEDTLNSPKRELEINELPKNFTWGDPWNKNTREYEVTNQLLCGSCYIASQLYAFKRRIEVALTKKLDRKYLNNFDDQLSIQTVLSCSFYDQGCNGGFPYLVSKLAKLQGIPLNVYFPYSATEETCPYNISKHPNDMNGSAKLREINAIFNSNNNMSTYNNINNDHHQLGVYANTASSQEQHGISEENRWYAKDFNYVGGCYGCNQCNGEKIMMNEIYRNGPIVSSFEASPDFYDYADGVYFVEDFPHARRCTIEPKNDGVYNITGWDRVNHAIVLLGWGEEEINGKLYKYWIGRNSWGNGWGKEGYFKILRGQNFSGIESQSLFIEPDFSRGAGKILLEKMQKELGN

SMILES	% Inhibition @ 10 uM [%]
O=C(C1CCC(CNc2c(N3CCCCC3)c(=O)c2=O)CC1)N1CCN(c2ccccn2)CC1 (centres unmarked)	4.4
C=CCNC(=O)c1cccc(Br)c1	-0.0369
Cc1nc2cnn(-c3ccccc3)c(=O)c2s1	-3.15
CCOC(=O)c1c(NC(C)=O)sc2c1CCCC2=O	-1.29
O=C(NCCCN1CCCC1=O)[C@@H](c1ccccc1)N1Cc2ccccc2C1=O	1.26
CC(=O)c1c(Cl)nc2ccc(Br)cc2c1-c1ccccc1	7.5
Cc1ccc(Cc2c(C)nc3c(C(=O)N4CCCCCC4)cnn3c2C)cc1	-2.14
O=C(O)C1C2CCC(O2)C1C(=O)N1CCN(c2ccc(F)cc2)CC1 (centres unmarked)	-7.93
COc1ccc(NC(=O)C2Oc3ccccc3OC2C)cc1 (centres unmarked)	2.53
Cc1ccc(CN2C(=O)C3(C(C#N)=C(N)OC4=C3C(=O)CC(C)(C)C4)c3ccccc32)cc1 (centres unmarked)	-5.96
CN1CCN(C2=NC(=O)/C(=C/c3ccc(O)cc3)S2)CC1	-4.39
COCCCNC(=O)c1ccc(-n2c(C)cc3c2CCC(C)C3)cc1 (centres unmarked)	-0.613
O=C(O)c1ccc(N2C(=O)C=CC2=O)cc1	-0.128
COc1ccc(C2=NOC(C(=O)NCC3CCCO3)C2)cc1 (centres unmarked)	-0.0115
CCOc1ccc(N(CC(=O)N(C)Cc2ccccc2)S(C)(=O)=O)cc1	-3.1
CCOC(=O)N1CCC(/N=c2\c(O)c(O)\c2=N/CCc2ccccc2)CC1	1.93
c1ccc(C2=Nn3c(Cn4nnc5ccccc54)nnc3SC2)cc1	1.25
CC(C)C[C@H](NC(=O)OCc1ccccc1)C(=O)N[C@H](C=O)CCCCNC(=O)OC(C)(C)C (Cbz-Leu-Lys(Boc)-aldehyde)	2.87
Cc1nn(-c2ccccc2)c2c1C(c1ccc(O)cc1)C(C#N)=C(N)O2 (centres unmarked)	-0.902
Cc1c(C(=O)N2CCCC2)oc2c1-c1nn(CC(=O)NCc3ccc(F)cc3)cc1CC2	2.54
CC(C)CCNS(=O)(=O)c1ccc(-c2ccc(O)nn2)s1	4.09
CSc1ncc(C(=O)N2CCN(Cc3ccccc3)CC2)c(-c2ccccc2)n1	5.1
CC(Sc1nc(-c2cccnc2)ccc1C#N)C(=O)O (centres unmarked)	-3.63
COc1cccc(C2C(C#N)=C(N)Oc3[nH]nc(C)c32)c1OCc1c(F)cccc1Cl (centres unmarked)	0.121
COc1ccccc1Oc1cc(-n2nc(C)cc2C)ncn1	-1.55

SMILES	% Inhibition @ 10 uM [%]
CSc1nc(Oc2ccc(C(C)C)cc2)cc(-n2cncn2)n1	4.81
COc1ccc(C2=N/C(=C\c3sccc3C)C(=O)O2)cc1OC	-1.82
CCOC(=O)c1c(NC(=O)C(F)(OC)C(F)(F)F)sc(CC)c1-c1ccccc1 (centres unmarked)	-3.04
N#CC1(NC(=O)[C@H](Cc2c(F)cccc2F)NC(=O)c2ccc(-c3cc(C(=O)O)ccc3Cl)cc2)CCS(=O)(=O)CC1	3.1
Cc1ccc(-c2cc(C(=O)O)c3ccccc3n2)cc1	3.05
O=C(Cn1ncc2ccccc21)NCc1cccc(Br)c1	-1.7
Cc1cccc(-n2c(C)cc(C(=O)C(=O)Nc3nccs3)c2C)c1	0.444
COc1ccc(C(=O)c2sc3nc(C)cc(-c4cccs4)c3c2N)cc1OC	3.05
CC(C)(C)C1CCc2c(sc(NC(=O)C3CC=CCC3C(=O)O)c2C#N)C1 (centres unmarked)	5.59
COc1ccc(CC(=O)N2N=C(C(F)F)CC2(O)C(F)F)cc1 (centres unmarked)	1.34
CCOC(=O)C1=C(c2ccccc2)N=C(S)NC1c1cccc(OC)c1OC (centres unmarked)	-0.142
COc1cc2c(C(=O)N3CCC(C)CC3)cn(C)c(=O)c2cc1OC	-4.86
CCN1CCCC1CNC(=O)CSCc1nc(-c2ccc(SC)cc2)oc1C (centres unmarked)	2.37
CCOc1ccc(C(=O)Nc2nc(C)c(C(=O)OC)s2)cc1Br	15.8
Cc1cc(-c2ccccc2)ccc1C(=O)N[C@@H](CC(C)C)C(=O)NCC#N	-1.41
CCC(C)Nc1nc2c(cc1C#N)COC(C)(C)C2 (centres unmarked)	-1.51
CCOc1ccccc1NC(=O)C1=C(C)NC(=O)NC1c1ccc(C(C)C)cc1 (centres unmarked)	3.13
Cc1cc(C(=O)N2CCN(c3ccc(OCc4ccccc4)cc3)CC2)c(C)o1	7.68
CC(C)(C)CC(C)(C)c1ccc(OCC(=O)O)cc1	-0.834
O=C(O)c1cccc(NC(=O)C23CC4CC(CC(C4)C2)C3)c1	-4.61
CCCn1c(=O)c(C(=O)Nc2ccccc2C)c(O)c2ccccc21	-0.034
Cc1ccc(S(=O)(=O)Nc2ccc(NS(=O)(=O)c3ccc(F)cc3)cc2)cc1	-3.95
CC1CCCC(NC(=O)Cn2cccc2C(=O)c2ccccc2)C1C (centres unmarked)	-0.522
Cc1nn(CC(=O)NCC2CCCO2)c(=O)c2ccccc12 (centres unmarked)	-3.96
CC1=C(C(=O)OCc2ccccc2)C(c2ccc(Cl)cc2)C2=C(O)CC(C)(C)CC2=N1 (centres unmarked)	-0.294
